Data published in the supplement of paper PMC3334620.
The full ranking holds about 33,000 sequences; the median of “E-score (-0.5 to 0.5)” is about -0.054, and the highest 2% start at about 0.39. This is one part of the list.

Biological target: Ylr278c (UniProt Q05854)
Assay: PBM E-score (8-mer binding enrichment) (E-score (-0.5 to 0.5)); higher = stronger / more preferred TF binding; most listed sequences are background and not binding sites
Conditions: protein concentration: 200 nM; construct: GST-DNA-binding domain
Procedure, shortened: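 The E-score, a modified Wilcoxon-Mann-Whitney statistic, was computed by the Universal PBM Analysis Suite for every ungapped eight-base word pooled with its reverse complement. Scans behind it were normalised with masliner after bound GST-tagged yeast transcription factors were detected with fluorescent anti-GST. The proteins, at about 100-200 nM, had been applied to universal all-10-mer Agilent arrays made double-stranded by primer extension.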

| Sequence | PBM E-score |
| --- | --- |
| CTTGTCAA | 0.0542 |
| AATAATAT | 0.23 |
| AGCCATTC | -0.0143 |
| AGTACGAC | -0.0403 |
| CCACATGG | -0.18 |
| CACGTGTA | -0.171 |
| GACATCTA | -0.103 |
| CGGCCCGA | 0.25 |
| CAACCCCC | -0.0384 |
| CGAATAAG | -0.0916 |
| CAACACGA | -0.207 |
| CAAGTCCA | -0.118 |
| AACGCAAG | -0.136 |
| GTATCGTA | -0.187 |
| ACCACGCC | -0.0137 |
| GCCTACGA | -0.0756 |
| TCGACCGA | 0.136 |
| AAGCAAGA | -0.16 |
| ACCATTGA | -0.187 |
| CTTATAGA | -0.142 |
| TAAGTCAA | -0.285 |
| GACAATCC | 0.222 |
| CAATTGGA | -0.178 |
| ATGGTTTC | -0.0232 |

| Sequence | PBM E-score |
| --- | --- |
| ACCGGGCG | 0.121 |
| ATGCTAGC | 0.00697 |
| AGTACTGA | -0.208 |
| AATCAGTC | -0.0977 |
| CAGACCGC | 0.0478 |
| ACTATCAG | -0.221 |
| CACATTCA | -0.0945 |
| AGATCTCG | 0.012 |
| CCAAAAAC | -0.00752 |
| CGGTGGGA | 0.124 |
| CCCACAAC | -0.0392 |
| ATAGGCCA | -0.061 |
| CACTCGCA | -0.028 |
| AAAACTCT | -0.16 |
| ATTCACTG | -0.135 |
| AGCGTGCA | 0.0128 |
| CTAATGGC | -0.107 |
| CACCGGGG | 0.345 |
| GATACTGC | 0.0575 |
| AGACGTCC | -0.0515 |
| ATCTGAAA | -0.039 |
| CCCTGTAG | -0.0141 |
| CGCTCGAA | -0.00193 |
| GACAAGTA | 0.113 |

| Sequence | PBM E-score |
| --- | --- |
| ACAAACCG | 0.156 |
| AAACCACA | -0.0305 |
| AGAGCTTC | -0.0549 |
| AGGTCCTG | -0.173 |
| ACGAAACG | -0.0505 |
| CACTCAAC | -0.0951 |
| GGTGGATA | -0.0278 |
| TAGATAAA | -0.0204 |
| GACTAACC | -0.027 |
| GCTGCTTA | -0.0827 |
| ACATAGTG | -0.00358 |
| CCGTTTTA | 0.22 |
| CCAATTGG | -0.146 |
| CTCCGCAA | 0.409 |
| AGAAGATA | 0.138 |
| CGTTTATA | 0.0427 |
| CCATTAAA | -0.0121 |
| CACTGGCC | -0.0953 |
| CCTCGAGG | -0.308 |
| CTTCCGGC | 0.371 |
| CGATACTA | 0.0974 |
| AGCTTCGG | 0.208 |
| ATGATTGC | -0.0479 |
| CACTATCG | 0.104 |

| Sequence | PBM E-score |
| --- | --- |
| TGATGGCA | -0.226 |
| CATCTGAG | -0.0423 |
| AGGGGTGC | -0.114 |
| GATAAGCA | 0.0369 |
| ACGCAGCA | -0.159 |
| AGGCACAC | -0.245 |
| ACGTGACC | -0.116 |
| GTGAGAGA | -0.175 |
| GAATCGGC | 0.33 |
| CAAAGACC | -0.0204 |
| CACCCATA | -0.153 |
| GATGGACA | 0.095 |
| CCAGGTTA | -0.0329 |
| GTTCAAAA | -0.0851 |
| ACCCTGAG | -0.163 |
| GACGCACA | 0.146 |
| ATAACTAG | -0.0232 |
| CTATGATC | -0.0971 |
| ACACCTCA | -0.225 |
| ACCGGCTC | 0.224 |
| ACTCTCGG | 0.263 |
| TCCGAAAA | 0.431 |
